# According to the supplement of paper PMC8728848:
# This is one part of the list.
# B1: LecB LY19 (Pseudomonas aeruginosa) (protein)
# chain: MATQGVFTLPANTQFGVTAFANSAGTQTVNVQVNNETVATFTGQSTNNGIIGSKVLNSGGGGKVQILVSVNGRSSDLVSAQVILANELNFALVGSEDSTDNDYNDAVVVINWPLG
# Experiments:
# Experiment in all cases: glycan array binding signal (z-score within array); higher = stronger binding
# Conditions in all cases: glycan notation: IUPAC condensed, linker removed
# [1] = target: Neu5Ac(a2-3)Gal(b1-3)]Neu5Ac(a2-3)Gal(b1-4)]GlcNAc
# Procedure, shortened: (§1)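 Negative Z-scores can be read as non-binding. The Z-score is calculated within each array and then averaged across arrays of one protein sequence at different concentrations or buffers and across linkers. Arrays, 3228 in all, were curated from the Consortium for Functional Glycomics database and kept only where the protein sequence was available.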
# [2] = target: Neu5Ac(a2-3)Gal(b1-4)Glc
# Procedure, shortened: as §1
# [3] = target: Neu5Ac(a2-3)Gal(b1-4)GlcNAc
# Procedure, shortened: as §1
# [4] = target: Neu5Ac(a2-3)Gal(b1-4)GlcNAc(b1-2)Man
# Procedure, shortened: as §1
# [5] = target: Neu5Ac(a2-3)Gal(b1-4)GlcNAc(b1-2)Man(a1-3)[GlcNAc(b1-4)][Neu5Ac(a2-3)Gal(b1-4)GlcNAc(b1-2)Man(a1-6)]Man(b1-4)GlcNAc(b1-4)GlcNAc
# Procedure, shortened: as §1
# [6] = target: Neu5Ac(a2-3)Gal(b1-4)GlcNAc(b1-2)Man(a1-3)[Neu5Ac(a2-3)Gal(b1-4)GlcNAc(b1-2)Man(a1-6)]Man(b1-4)GlcNAc(b1-4)GlcNAc
# Procedure, shortened: as §1
# [7] = target: Neu5Ac(a2-3)Gal(b1-4)GlcNAc(b1-2)Man(a1-3)[Neu5Ac(a2-3)Gal(b1-4)GlcNAc(b1-2)Man(a1-6)]Man(b1-4)GlcNAc(b1-4)[Fuc(a1-6)]GlcNAc
# Procedure, shortened: as §1
# [8] = target: Neu5Ac(a2-3)Gal(b1-4)GlcNAc(b1-2)Man(a1-3)[Neu5Ac(a2-6)Gal(b1-4)GlcNAc(b1-2)Man(a1-6)]Man(b1-4)GlcNAc(b1-4)GlcNAc
# Procedure, shortened: as §1
# [9] = target: Neu5Ac(a2-3)Gal(b1-4)GlcNAc(b1-2)[Neu5Ac(a2-3)Gal(b1-4)GlcNAc(b1-4)]Man(a1-3)[GlcNAc(b1-4)][Neu5Ac(a2-3)Gal(b1-4)GlcNAc(b1-2)[Neu5Ac(a2-3)Gal(b1-4)GlcNAc(b1-6)]Man(a1-6)]Man(b1-4)GlcNAc(b1-4)GlcNAc
# Procedure, shortened: as §1
# [10] = target: Neu5Ac(a2-3)Gal(b1-4)GlcNAc(b1-2)[Neu5Ac(a2-3)Gal(b1-4)GlcNAc(b1-4)]Man(a1-3)[GlcNAc(b1-4)][Neu5Ac(a2-3)Gal(b1-4)GlcNAc(b1-4)Man(a1-6)]Man(b1-4)GlcNAc(b1-4)GlcNAc
# Procedure, shortened: as §1
# [11] = target: Neu5Ac(a2-3)Gal(b1-4)GlcNAc(b1-2)[Neu5Ac(a2-3)Gal(b1-4)GlcNAc(b1-6)]Man(a1-6)[Neu5Ac(a2-3)Gal(b1-4)GlcNAc(b1-2)Man(a1-3)][GlcNAc(b1-4)]Man(b1-4)GlcNAc(b1-4)GlcNAc
# Procedure, shortened: as §1
# [12] = target: Neu5Ac(a2-3)Gal(b1-4)GlcNAc(b1-3)Gal
# Procedure, shortened: as §1
# [13] = target: Neu5Ac(a2-3)Gal(b1-4)GlcNAc(b1-3)Gal(b1-3)GlcNAc
# Procedure, shortened: as §1
# [14] = target: Neu5Ac(a2-3)Gal(b1-4)GlcNAc(b1-3)Gal(b1-4)GlcNAc
# Procedure, shortened: as §1
# [15] = target: Neu5Ac(a2-3)Gal(b1-4)GlcNAc(b1-3)Gal(b1-4)GlcNAc(b1-2)Man(a1-3)[Neu5Ac(a2-3)Gal(b1-4)GlcNAc(b1-3)Gal(b1-4)GlcNAc(b1-2)Man(a1-6)]Man(b1-4)GlcNAc(b1-4)GlcNAc
# Procedure, shortened: as §1
# [16] = target: Neu5Ac(a2-3)Gal(b1-4)GlcNAc(b1-3)Gal(b1-4)GlcNAc(b1-3)Gal(b1-4)GlcNAc
# Procedure, shortened: as §1
# [17] = target: Neu5Ac(a2-3)Gal(b1-4)GlcNAc(b1-3)Gal(b1-4)GlcNAc(b1-3)Gal(b1-4)GlcNAc(b1-2)Man(a1-3)[Neu5Ac(a2-3)Gal(b1-4)GlcNAc(b1-3)Gal(b1-4)GlcNAc(b1-3)Gal(b1-4)GlcNAc(b1-2)Man(a1-6)]GalNAc
# Procedure, shortened: as §1
# [18] = target: Neu5Ac(a2-3)Gal(b1-4)GlcNAc(b1-3)Gal(b1-4)GlcNAc(b1-3)GalNAc
# Procedure, shortened: as §1
# [19] = target: Neu5Ac(a2-3)Gal(b1-4)GlcNAc(b1-3)Gal(b1-4)GlcNAc(b1-3)[Neu5Ac(a2-3)Gal(b1-4)GlcNAc(b1-3)Gal(b1-4)GlcNAc(b1-6)]GalNAc
# Procedure, shortened: as §1
# [20] = target: Neu5Ac(a2-3)Gal(b1-4)GlcNAc(b1-3)Gal(b1-4)GlcNAc(b1-6)[Gal(b1-3)]GalNAc
# Procedure, shortened: as §1
# [21] = target: Neu5Ac(a2-3)Gal(b1-4)GlcNAc(b1-3)Gal(b1-4)[Fuc(a1-3)]GlcNAc
# Procedure, shortened: as §1
# [22] = target: Neu5Ac(a2-3)Gal(b1-4)GlcNAc(b1-3)GalNAc
# Procedure, shortened: as §1
# [23] = target: Neu5Ac(a2-3)Gal(b1-4)GlcNAc(b1-3)[Neu5Ac(a2-3)Gal(b1-4)GlcNAc(b1-6)]GalNAc
# Procedure, shortened: as §1
# [24] = target: Neu5Ac(a2-3)Gal(b1-4)GlcNAc(b1-6)GalNAc
# Procedure, shortened: as §1
# [25] = target: Neu5Ac(a2-3)Gal(b1-4)GlcNAc(b1-6)[Gal(b1-3)]GalNAc
# Procedure, shortened: as §1
# [26] = target: Neu5Ac(a2-3)Gal(b1-4)GlcNAc(b1-6)[Neu5Ac(a2-3)Gal(b1-3)]GalNAc
# Procedure, shortened: as §1
# [27] = target: Neu5Ac(a2-3)Gal(b1-4)GlcNAc6S
# Procedure, shortened: as §1
# [28] = target: Neu5Ac(a2-3)Gal(b1-4)[Fuc(a1-3)]GlcNAc
# Procedure, shortened: as §1
# [29] = target: Neu5Ac(a2-3)Gal(b1-4)[Fuc(a1-3)]GlcNAc(b1-2)Man
# Procedure, shortened: as §1
# [30] = target: Neu5Ac(a2-3)Gal(b1-4)[Fuc(a1-3)]GlcNAc(b1-3)Gal
# Procedure, shortened: as §1
# [31] = target: Neu5Ac(a2-3)Gal(b1-4)[Fuc(a1-3)]GlcNAc(b1-3)Gal(b1-4)GlcNAc
# Procedure, shortened: as §1
# [32] = target: Neu5Ac(a2-3)Gal(b1-4)[Fuc(a1-3)]GlcNAc(b1-3)Gal(b1-4)[Fuc(a1-3)]GlcNAc(b1-3)Gal(b1-4)[Fuc(a1-3)]GlcNAc
# Procedure, shortened: as §1
# [33] = target: Neu5Ac(a2-3)Gal(b1-4)[Fuc(a1-3)]GlcNAc(b1-3)GalNAc
# Procedure, shortened: as §1
# [34] = target: Neu5Ac(a2-3)Gal(b1-4)[Fuc(a1-3)]GlcNAc(b1-6)[Gal(b1-3)]GalNAc
# Procedure, shortened: as §1
# [35] = target: Neu5Ac(a2-3)Gal(b1-4)[Fuc(a1-3)]GlcNAc(b1-6)[Neu5Ac(a2-3)Gal(b1-3)]GalNAc
# Procedure, shortened: as §1
# [36] = target: Neu5Ac(a2-3)Gal(b1-4)[Fuc(a1-3)]GlcNAc6S
# Procedure, shortened: as §1
# [37] = target: Neu5Ac(a2-3)Gal6S(b1-4)GlcNAc
# Procedure, shortened: as §1
# [38] = target: Neu5Ac(a2-3)Gal6S(b1-4)[Fuc(a1-3)]GlcNAc
# Procedure, shortened: as §1
binder,measurement,setting,value
B1,glycan array binding signal (z-score),[1],-0.542
same,glycan array binding signal (z-score),[2],-0.516
same,glycan array binding signal (z-score),[3],-0.555
same,glycan array binding signal (z-score),[4],-0.515
same,glycan array binding signal (z-score),[5],-0.548
same,glycan array binding signal (z-score),[6],-0.558
same,glycan array binding signal (z-score),[7],0.326
same,glycan array binding signal (z-score),[8],-0.393
same,glycan array binding signal (z-score),[9],-0.555
same,glycan array binding signal (z-score),[10],-0.555
same,glycan array binding signal (z-score),[11],-0.55
same,glycan array binding signal (z-score),[12],-0.006
same,glycan array binding signal (z-score),[13],-0.556
same,glycan array binding signal (z-score),[14],-0.547
same,glycan array binding signal (z-score),[15],-0.522
same,glycan array binding signal (z-score),[16],-0.557
same,glycan array binding signal (z-score),[17],-0.272
same,glycan array binding signal (z-score),[18],-0.542
same,glycan array binding signal (z-score),[19],-0.54
same,glycan array binding signal (z-score),[20],-0.554
same,glycan array binding signal (z-score),[21],-0.545
same,glycan array binding signal (z-score),[22],1.14
same,glycan array binding signal (z-score),[23],-0.555
same,glycan array binding signal (z-score),[24],-0.547
same,glycan array binding signal (z-score),[25],-0.147
same,glycan array binding signal (z-score),[26],-0.547
same,glycan array binding signal (z-score),[27],-0.551
same,glycan array binding signal (z-score),[28],0.924
same,glycan array binding signal (z-score),[29],0.728
same,glycan array binding signal (z-score),[30],1.88
same,glycan array binding signal (z-score),[31],1.52
same,glycan array binding signal (z-score),[32],2.27
same,glycan array binding signal (z-score),[33],-0.21
same,glycan array binding signal (z-score),[34],-0.284
same,glycan array binding signal (z-score),[35],-0.307
same,glycan array binding signal (z-score),[36],0.644
same,glycan array binding signal (z-score),[37],1.06
same,glycan array binding signal (z-score),[38],0.586
